The other results are listed elsewhere or left out. At the low end of the ranking the order means little. The protein was read in a cell extract, so binding may be indirect.

This assay addresses T1, HNF4alpha8 (COS-7 nuclear extract) (UniProt P41235-5).
T1 sequence: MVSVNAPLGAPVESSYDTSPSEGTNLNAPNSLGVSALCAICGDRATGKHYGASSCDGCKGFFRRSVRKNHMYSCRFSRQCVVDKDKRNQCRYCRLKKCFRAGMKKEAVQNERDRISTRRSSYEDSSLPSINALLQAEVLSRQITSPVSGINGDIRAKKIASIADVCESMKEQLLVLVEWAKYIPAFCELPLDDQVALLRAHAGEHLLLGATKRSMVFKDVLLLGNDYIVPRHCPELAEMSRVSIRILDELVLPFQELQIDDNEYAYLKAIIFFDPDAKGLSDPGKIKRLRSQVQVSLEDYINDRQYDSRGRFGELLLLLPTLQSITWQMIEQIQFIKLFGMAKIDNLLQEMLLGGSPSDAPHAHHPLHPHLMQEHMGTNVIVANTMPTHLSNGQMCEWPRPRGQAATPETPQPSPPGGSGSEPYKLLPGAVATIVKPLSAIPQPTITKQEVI
The assay is described as follows: protein-binding microarray. The settings on record: COS-7 nuclear extract on double-stranded Agilent 4x180k PBM; binding buffer, salt, pH and temperature not given; high values mean tight binding; double strand, one strand shown; sequences stand for … in …GCCTAGGGAGATTAGAGTATCGGTCGA
For the sequence GAATTTTGTGCAATTACACAACTTCCTTCA, the binding signal (log2 normalized intensity) was -1.38.

Regarding TCTGTGTGGTAAAAGCACTGAACCCTGTTT, the binding signal (log2 normalized intensity) was determined as 2.31.

Turning to CCCAGAAGAATGGGCAGAAGTAGGATAAGG, the binding signal (log2 normalized intensity) is -1.49. Take TGTTCTAATGAGGCCACTCCTGATAGCTAG: the binding signal (log2 normalized intensity) was -1.22. For ACAAACACAGAAGTGGACCTTCACCAGATA the value was 2.46; for GTGAGGGAGGAGACTTTGACCTCTGCTAGG, 6.12. Consider TTCTTGGTGGAAGTGGTGATTTCGTTGAAA, for which the binding signal (log2 normalized intensity) stood at 1.23. In the case of TTGTGGAGGATGGGAAGTCCAAAGTCTGCA, the binding signal (log2 normalized intensity) came to 4.82. For the sequence TCAGATGAACTTTGCCTTAGGCCATTGTCC, the binding signal (log2 normalized intensity) was 3.98. With GGGGGCCAGTTCACTCAGTCCACATGGTGT, the binding signal (log2 normalized intensity) amounted to 0.389.

As for AGATATCAGAAATGCATGAGTGACCTTTAT, the binding signal (log2 normalized intensity) is 5.66. With CATTCCCCAGGCAATCTTCCAGTCCACAGT, the binding signal (log2 normalized intensity) came out at 1.24. Turning to AATTGGGGGAGAGTTTAAGGTTGTACTTTG, the binding signal (log2 normalized intensity) came to 3.69. As for AGATGGAATGTTGTGTCTTCCAGTTCATTT, the binding signal (log2 normalized intensity) turned out to be 1.64. For CTACAGTCCTGCCACATCCCCCACACCGAG, the binding signal (log2 normalized intensity) worked out at 4.27. Take GGGAAGGCAGGTCTCTCTCATTCACACCCT: the binding signal (log2 normalized intensity) was -1.29. Turning to GTTAAAGTTGCCTGATGACAACTGAATGTG, the binding signal (log2 normalized intensity) is -0.261. For TTGCAGACCTTGGTCAAAGTGACACATTCC the value was 0.772. On to GTCATCAGATAGATGGTCAGTGAACTGTGG, for which the binding signal (log2 normalized intensity) stood at 1.96.

For TCTTGGACTCTTGGACTCCCTGAAGAAACA, the binding signal (log2 normalized intensity) was 4.67. On to AAGGGCTGAGGTTAAAGTCCACATTCTTTA, for which the binding signal (log2 normalized intensity) was 6.82. The same measure for TGGAATGCTTTTCTAGAACCAGGAATCCTA: -1.25; for CTTGCTGCATTCCCCCACCTACTGTCTCCT: 3.25; for CAAGTTATCTCGGGGTGGCATGTATCTGAT: 1.21.

As to GTAACCTCAAAGGAGGTCAGAACTGTGGAC, the binding signal (log2 normalized intensity) worked out at 1.78. In the case of CTTCTTGGATGCCCTTCCCTAACCCTTCAA, the binding signal (log2 normalized intensity) was found to be 2.61.

Take GGCCTCTCCTTCATCTTCAAAGCCAGCAAT: the binding signal (log2 normalized intensity) is -1.26. Turning to TTTATCCAGTTCTGTGTACAAAGCCCCATA, the binding signal (log2 normalized intensity) came to 3.39.

Consider TGGTTTTTCTGGGACCAAGGGTCAGTTCAT, for which the binding signal (log2 normalized intensity) amounted to 4.47.

AAATGTAATCAGCAAGTTTTATATGAAAAC: the binding signal (log2 normalized intensity) worked out at 0.415. For GGACTCCAAGCCCCAAAAACTTGGACTCTA, the binding signal (log2 normalized intensity) amounted to 5.81. In the case of TTCAAGAAGACCTTTGCTCCACGTTCATAT, the binding signal (log2 normalized intensity) was 4.16. For CCCCACTTCCTGACTTGGCCTGAACCAGTT, the binding signal (log2 normalized intensity) was 0.602. Take TACCCAACTCATCAGTATTTGATGGTACAA: the binding signal (log2 normalized intensity) was determined as 1.31. With TATTGGATTCCCCAATGCAGTACTATGCAA, the binding signal (log2 normalized intensity) was 0.782. With CTTAAAGGCCTGTGTCGATGTTAACGCTAA, the binding signal (log2 normalized intensity) was -1.15. The same measure for CAGGTGGGAGGGGTGGACTTTGGCTTTTCC: 6.31. For GAGCCTGGGGTTCAGCCACACCAAGTCTGG, the binding signal (log2 normalized intensity) was -1.19. Turning to TCCCGGGGAGTCCTGGGCGTTGCTCTCCCA, the binding signal (log2 normalized intensity) was -1.39. The same measure for GGGAGGAGGAGACAAAGGCCGCGCCCGCCC: -1.3.

Regarding TTCCCTTATCTTCTCCCCTGCCAAATCATG, the binding signal (log2 normalized intensity) came to 2.53.

For the sequence TGGTCAAAGGTCACCAGTGAGCCAAGGTAC, the binding signal (log2 normalized intensity) turned out to be 5.3. The same measure for AAACTTCATGGCTTAAAACGACTGATTCTC: -0.496. For TCCAGATCAAGGATTTTTTCTTGGACTTTG the value was 5.67; for ATCTTTGCCCTTGAAGATACAGTTATGAAA, 1.17.

Regarding GTGCAAAGGCCTTAAAGTGTAAATATTTGA, the binding signal (log2 normalized intensity) came out at 0.546.

In the case of AAGCAGTCTACACTAGGAGGAGGTCAAAGT, the binding signal (log2 normalized intensity) worked out at 4.84. As to CAGAGCATTGTTTATTGTTGCTGATATAGA, the binding signal (log2 normalized intensity) came out at 1.

On to GAAGGACAAAGATCATAAATGCCTCCCCCT, for which the binding signal (log2 normalized intensity) is 4.89. As to CAAAACTTTAGGACTTTGAACCTTGGGTCT, the binding signal (log2 normalized intensity) was 7.83.

CTTTACTTATCCAAAGCTGCTGGGAGGTAG: the binding signal (log2 normalized intensity) was -0.0834.

Turning to CCTGGTCAAAGTCAACTCCTCCAAGCCACC, the binding signal (log2 normalized intensity) was 0.614. ATAAAAGATTGCATCTGTTTTTATTTCCCC: the binding signal (log2 normalized intensity) was 1.82. For the sequence AAACTTATCTTGTGACCTTTGACTCATTAT, the binding signal (log2 normalized intensity) worked out at 7.16.

With TCAGGCTGTGGTACGGAATCCAGGCCAACT, the binding signal (log2 normalized intensity) was -1.12. On to GAACCGTCGTAATGGCTAAGGGCATCTACT, for which the binding signal (log2 normalized intensity) is -1.2. Consider ATCCAAAGTTCATGGAAAGTTTCACTTTCT, for which the binding signal (log2 normalized intensity) came to 1.67. In the case of CAAAATTTTAATTAGAACTGTAATTGAGTA, the binding signal (log2 normalized intensity) is 0.247. With GTTCCGACCTTAGTACTCTGCCATGTGCTA, the binding signal (log2 normalized intensity) worked out at 1.89. For CAGGAAGTTCCCACAGTCCTTAAGATCCAA the value was -1.41; for CCTTATCATCACATGTGCAAGGGCAGCTCC, 0.8. Take AGGCTGGGTGATAAGAACACAAAAGCCTCT: the binding signal (log2 normalized intensity) was -1.36. For the sequence GTTAAGTAACGTGTCAGAGGTCACTCAGCA, the binding signal (log2 normalized intensity) was found to be 3.07. For TGTGAGTCCAGTTGAATGATGGCGAGTGTG the value was 1.07; for GTTTAGTTGGAGAGACAGGTAAATCAGTAC, 0.128.

For the sequence ATGCCAGGAATGCTGAGGAGGGCCTGGGGG, the binding signal (log2 normalized intensity) was -1.22. The same measure for ACCTCTCCCACCTGAATTATTGTATAGCTT: 0.233; for TCCCATCCCACTAGGTGGCGCTGTTGACCT: 4.39.

With CTGGCCTCTGAGATTCGGTGAGGGATTGTT, the binding signal (log2 normalized intensity) is -0.0778. Turning to GGGACAAAGGTCACAGGAAAGGGACCAAAG, the binding signal (log2 normalized intensity) was found to be 4.27.

CATCTCCAGTTCCAAAGTCCAGGTGCTTTC: the binding signal (log2 normalized intensity) came out at 5.22. The same measure for ACCTCCTGACTAAAGTTCATTGCTTTGAGC: 2.32; for ACCAGGCAAAAATGCCAGGCATTTGCGATA: -1.33. On to GGCTGTGGAGGGCAGTGGATGGGGGCGTTC, for which the binding signal (log2 normalized intensity) is 0.786. The same measure for CTGGGAGATAAGATAGCACCAGCCCATTAA: -1.39; for GGGCTCAAAGGTTACCACCCAGGAGTCTGT: 3.78. In the case of TTTGGCTCAGGGCCTCTCCTTCATCTTCAA, the binding signal (log2 normalized intensity) was -0.738. The same measure for CTAGGTGGCGCTGTTGACCTTGAAATGCCA: 2.59; for GGCTGAGCGTGAACACCGGCCCCCTCCCCC: 5.76.

Regarding CCACCTCCTCTGAAGCTAGGACAAGGCTCA, the binding signal (log2 normalized intensity) was -1.36. With GAGCAATTATGCACCCGTGGTTGATCAAAG, the binding signal (log2 normalized intensity) came out at 0.509. In the case of TGAGCTGAGTTCCACAGATAAGGAGGAGAC, the binding signal (log2 normalized intensity) is -1.36. AGGTTATCTCGGGGCTGGCATGTCTCTGGT: the binding signal (log2 normalized intensity) amounted to 0.922. For the sequence TTTTTGACCTGTATCTTGTGGTGACCTCTT, the binding signal (log2 normalized intensity) came out at 5.13. For GGTGGACATGGTCCAGTCACAGCAAAAGTA the value was 0.211; for TTAGGCAAGCAAACTGCAAATACAGGTGAA, -1.25; for AGCCTCTTGAGTAGCTGGGACTACAGGCAG, -1.27.

As for GAAGACAGTTCAAATCCCTTCGGATGACTC, the binding signal (log2 normalized intensity) is -1.25.

Take AAGCCGAACGCTGGGGCAAAGGTTTCCTAA: the binding signal (log2 normalized intensity) came to 1.65. Regarding TGTTTTACCAGGAAGGGCTTTATGACCAGT, the binding signal (log2 normalized intensity) was 1.01. Regarding AGAGAGATAGCAAAATCAATAAATCACACG, the binding signal (log2 normalized intensity) was -1.2. For TGTCCTTTAACCTCCCTGCAGGTCTCTAAA the value was 0.893; for GATTCCTGCTGAGAGAGCAGGTTGAGTATC, 0.114.

(Values after article PMC10726135.)
